# PubChem BioAssay AID1347417 (National Center for Advancing Translational Sciences (NCATS), 2020)
# Among all 120,000 compounds or so, about 5,300 (4.4%) were called active. Inconclusive means that the source gave no clear call. Such entries were picked first, then a sample of the others. Calls follow the shape of the dose curve; as a rule, active = well fitted inhibition curve with a large enough effect; inconclusive = small, poorly fitted or top-dose-only effect; inactive = no such curve, though single readings can be large or run the other way. A potency beside an inconclusive call is a rough fit, not a confirmed value.
# Assay: qHTS Primary assay for Inhibitors of Plasmodium falciparum Dd2 growth in vitro; also: nearly all actives have a fitted effect of over 65% in size;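 as to activity, negative = inhibition: plate controls were DMSO vehicle for no effect and reference drug for full effect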
# Conditions: P. falciparum Dd2 growth, SYBR Green, 72 h; activity, negative = inhibition: at 28.9 µM (top of the series) unless noted; series mostly up to 28.9 µM
# How it was run: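 Infected erythrocytes (Dd2, 0.3% parasitemia, 2.5% hematocrit final) are added to compound in RPMI-1640/Albumax II medium, grown 72 h at 37C in low oxygen, then lysed with saponin/Triton-X containing SYBR Green and read by fluorescence.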
# Potency is read from the fitted curve at half-maximal effect; tags tell the direction and shape of the fitted curve.
Structure (SMILES),Potency,"activity, negative = inhibition"
COc1ccc(C(=O)N2CCC3(CC2)OC(=O)N(CC2CC2)C3(C)c2cccnc2)cn1 (stereo unspecified),"inconclusive: 10 µM [inhibitor, single point]",–
CN1CCOc2c(C(=O)NCCc3cnc[nH]3)cc(-c3cccc4[nH]ccc34)cc21,"inconclusive: 3.16 µM [inhibitor, partial curve, poor fit]",–
Cc1ccc(CC(=O)N2CCN(c3nnc4ccc(C(F)(F)F)cn34)CC2)cc1,inactive,–
Cc1nc(-c2ccccc2)n(CC(=O)Nc2ccc(Cl)cc2)c(=O)c1CCO,"inconclusive: 0.501 µM [inhibitor, full curve, poor fit]",–
CCCc1noc(-c2cn(C3CCN(C(=O)c4ccc(F)c(F)c4)CC3)nn2)n1,"inconclusive: 15.8 µM [inhibitor, single point]",–
CCCOc1ccc(Nc2nc(SC)ncc2C(=O)OCC)cc1,"inconclusive: 10 µM [inhibitor, single point]",–
COC(=O)c1ccc(NC(=O)Nc2nnc(N(C)C3CCCCC3)s2)cc1,inactive,–
OC[C@@H]1O[C@H](CNCc2cccc(Cl)c2)[C@H](N2CCOCC2)[C@@H]1O,"inconclusive: 11.2 µM [inhibitor, partial curve]",–
O=C(NCCc1ccccn1)[C@@H]1C[C@@H](c2ccc(F)cc2)N(Cc2ccccc2)C1,"inconclusive: 3.55 µM [inhibitor, partial curve]",–
COc1ccccc1NC(=O)Cn1c(=O)n(Cc2ccccc2)c(=O)c2ccccc21,"inconclusive: 17.8 µM [inhibitor, single point]",–
COc1ccc(CN2COc3ccc4c(C)cc(=O)oc4c3C2)cc1,active: 10 µM,–
CS(=O)(=O)N1CC2(CCCN(Cc3cccnc3)C2)Cc2ccccc21 (stereo unspecified),"inconclusive: 10 µM [inhibitor, single point]",–
COc1cccc(NC(=O)c2oc3ccccc3c2NC(=O)C23CC4CC(CC(C4)C2)C3)c1,"inconclusive: 12.6 µM [inhibitor, single point]",–
Cc1ccc(S(=O)(=O)N2CCCC(Cn3cnc4cccnc43)C2)c(C)c1 (stereo unspecified),inactive,–
Cc1ccc(-n2ncc3c(NCCc4ccccc4)ncnc32)cc1C,"inconclusive: 10 µM [inhibitor, partial curve, poor fit]",–
O=C(Nc1cccc2ccccc12)N[C@H]1CO[C@H]2[C@@H]1OC[C@@H]2n1nnnc1Oc1ccc2c(c1)OCO2,inactive,–
O=[S+]([O-])(c1cccnc1)N1CCNc2cnc(Nc3ccc(-n4ccnc4)cc3)nc2C1,"inconclusive: 17.8 µM [inhibitor, single point]",–
Cc1cccc(C)c1Oc1ncccc1CNC1CCN(C(C)C)CC1,"inconclusive: 12.6 µM [inhibitor, partial curve]",–
CCC(C)NC(=O)C(NC(=O)c1ccccc1F)C1CCN(C(=O)c2ccc(OC)cc2)CC1 (stereo unspecified),inactive,–
Cc1nc2cccnc2n1CC1CCCN(C(=O)Nc2cccc(C(F)(F)F)c2)C1 (stereo unspecified),active: 11.2 µM,–
O=C(c1ccccn1)N1CCCCCC1CN1CCCC1 (stereo unspecified),"inconclusive: 14.1 µM [inhibitor, partial curve, poor fit]",–

Structure (SMILES),Potency,"activity, negative = inhibition"
CN(CCc1ccccn1)[C@H]1[C@@H]2OC[C@@H](O2)[C@@H](NC(=O)Nc2ccc(F)cc2)[C@@H]1O,"inconclusive: 10 µM [inhibitor, single point]",–
Cc1cccc(C(=O)N[C@@H](Cc2ccccc2)C(=O)N2CCCOCCNC(=O)CC2)c1,inactive,–
CCn1c2ccccc2c2nnc(N3CCN(c4cccc(C)c4C)CC3)nc21,"inconclusive: 2.82 µM [inhibitor, full curve, poor fit]",–
COc1ccc(-c2[nH]nc3ncc(-c4ccccc4F)nc23)cc1F,"inconclusive: 3.16 µM [inhibitor, partial curve, poor fit]",–
O=C(NCCCN1CCOCC1)c1ccc2c(c1)N(Cc1ccccc1)C(=O)c1ccccc1S2,inactive,–
CCN(CC)c1cc(CCC(=O)NCCCN2CCOCC2)ccn1,"inconclusive: 8.91 µM [inhibitor, single point]",–
COc1ccc2nc3n(c2c1)[C@@H](CNS(=O)(=O)Cc1ccccc1)COC3,"inconclusive: 6.31 µM [inhibitor, full curve, poor fit]",–
COC(=O)CNC(=O)N1CCCCC1c1nc(CCOc2cccc(C)c2)no1 (stereo unspecified),"inconclusive: 0.158 µM [inhibitor, full curve]",–
Cc1cc(C)n2c(Nc3c(C)cccc3C)c(-c3ccsc3)nc2n1,"inconclusive: 7.08 µM [inhibitor, partial curve]",–
Cn1nc(C(=O)N2CCCN(Cc3ccncc3)C(c3ccccc3)CC(=O)NCC2)c2ccccc21 (stereo unspecified),"inconclusive: 3.55 µM [inhibitor, full curve]",–
O=C(NCCc1ccccc1)C1CN(S(=O)(=O)C2CC2)CC12CCCCC2 (stereo unspecified),"inconclusive: 11.2 µM [inhibitor, single point]",–
COc1ccc(-c2c(C)nn3c(C(F)(F)F)cc(-c4ccc(Br)cc4)nc23)cc1,inactive,–
O=C(CN1C(=O)NC(c2ccccc2Cl)C2=C1COC2=O)Nc1ccc(F)c(Cl)c1 (stereo unspecified),"inconclusive: 4.47 µM [inhibitor, partial curve, poor fit]",–
COc1ncccc1-c1cnc2[nH]cc(CC(=O)Nc3ccn(C)n3)c2c1,"inconclusive: 22.4 µM [inhibitor, single point]",–
CCN(CC)CCNC(=O)C1CCN(S(=O)(=O)c2c(C)noc2/C=C/c2ccccc2F)CC1,"inconclusive: 17.8 µM [inhibitor, single point]",–
Cn1nnnc1C1CCCN(C(=O)CCC2CCCC2)C1 (stereo unspecified),inactive,–
O=C1N[C@H](CC(=O)N2CCC(Cc3ccccc3)CC2)C(=O)Nc2ccccc21,"inconclusive: 20 µM [inhibitor, single point]",–
Cc1noc(-c2cccn3c(CNC(=O)c4cccnc4)nnc23)n1,inactive,–
COc1cccc(CC(=O)N2CCCCCCNC(=O)CC2c2ccccc2)c1 (stereo unspecified),"inconclusive: 20 µM [inhibitor, single point]",–
COc1ccc(Cl)cc1C(=O)NCC(c1ccc(N(C)C)cc1)N1CCOCC1 (stereo unspecified),–,inactive: 33% [at 5.79 µM]
